# Data from PubChem BioAssay AID686978 (National Center for Advancing Translational Sciences (NCATS), 2013).
# In all, about 420,000 compounds went through this assay and about 64,000 (15%) were called active. This list was built around the results that the source calls inconclusive (neither active nor inactive); the mix of calls is not that of the screen. Calls come from the whole dose curve; as a rule, active = well fitted inhibition curve with a large enough effect; inconclusive = small, poorly fitted or top-dose-only effect; inactive = flat fitted curve, though single readings scatter. No potency is given beside an inconclusive call; the fits are too rough. The source holds several records for some structures; these can differ, active in one and inactive in another.
# Experiment: qHTS for Inhibitors of human tyrosyl-DNA phosphodiesterase 1 (TDP1): qHTS in cells in absence of CPT; note: nearly all actives have a fitted effect of over 55% in size
# Settings: DT40 Tdp1-/- hTDP1 cells, no CPT, ATP luminescence, 48 h; activity change, negative = growth inhibition: at 46.2 µM (top of the series)
# Outline: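 Seeded 400 DT40-hTDP1 cells/well (vehicle DMSO, no 20 nM CPT); pinned compounds; ≥48 hr at 37 °C; CellTiter-Glo luminescence as viability measure.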
# % is set by controls: 0 for no effect and ±100 for the full control effect; potency is the fitted concentration of half-maximal effect; tags give direction and shape of the fitted curve.
SMILES,Potency,"activity change, negative = growth inhibition"
O=C(c1cccs1)N1CCCN(c2ncnc3scc(-c4ccccc4)c23)CC1,"inconclusive [inhibitor, single point]",
CC(=O)c1ccc(Nc2nc(NCCO)nc(OC(C(F)(F)F)C(F)(F)F)n2)cc1,"inconclusive [inhibitor, single point]",
Cn1c(S(=O)(=O)c2ccc([N+](=O)[O-])cc2)nc(Br)c1Br,"inconclusive [inhibitor, single point]",
C=CCC(CC=C)(CNC(=O)C(=O)Nc1cc(C)ccc1OC)c1ccc(OC)c(OC)c1,active: 16.4 µM,
COc1cc(OC)c(-c2nn3c(-c4n[nH]c5c4CCC5)nnc3s2)cc1OC,active: 11.2 µM,
COC(=O)CCSCC(=O)Nc1ccc(S(=O)(=O)N2CCOCC2)cc1OC,,inactive: 28.4%
COc1cccc(CNc2nc3nc(C)cc(C)n3n2)c1,,inactive: -19.9%
c1ccc(CCCN2CCN(c3ccccn3)CC2)cc1,,inactive: 0.269%
COc1ccc(CCC(=O)N2CCN(c3ccccc3)CC2)cc1OC,,inactive: -9.64%
O=C(NCCCN1CCOCC1)c1cc(-c2ccccc2F)no1,"inconclusive [inhibitor, partial curve]",
CCOC(=O)c1cccc(NC(=O)C2CCCN(S(=O)(=O)c3ccc4c(c3)oc(=O)n4C)C2)c1 (stereo unspecified),"inconclusive [inhibitor, partial curve]",
COc1ccc(C=C(C(C)=O)C(C)=O)cc1OC,"inconclusive [inhibitor, single point]",
CC(C)c1ccccc1NC(=O)C1CN(S(=O)(=O)c2ccccc2)CCN1S(=O)(=O)c1ccccc1 (stereo unspecified),"inconclusive [inhibitor, single point]",
O=C(CSc1nnc(Cc2cccs2)n1CCc1ccccc1)N1CCCc2ccccc21,"inconclusive [inhibitor, partial curve]",
COc1ccc(NC(=O)/C(C#N)=C/c2cc(C)n(-c3ccc(F)cc3)c2C)cc1,,inactive: -21.3%
CCc1ccc(NC(=O)C(C)n2nnc3sc(-c4ccccc4)cc3c2=O)cc1 (stereo unspecified),"inconclusive [inhibitor, partial curve]",
CSCCC1NC(=O)N(CC(=O)Nc2c(Cl)cc(Cl)cc2Cl)C1=O (stereo unspecified),"inconclusive [inhibitor, single point]",
CCN(CC)c1nc(C#N)nc(N2CCOCC2)n1,active: 10 µM,
Cn1cnc([N+](=O)[O-])c1NCc1ccccc1,,inactive: -2.77%
O=C(c1ccc(Cl)cc1[N+](=O)[O-])N1CCOCC1,,inactive: -0.975%
CCCNC(=O)c1cnc(Sc2ncc(C(F)(F)F)cc2Cl)n1C,"inconclusive [inhibitor, single point]",
CS(=O)(=O)c1ccc(C(=O)OCC(=O)c2ccc(Cl)s2)cc1,,inactive: -1.89%
COc1ccc(S(=O)(=O)N2CCOCC2)cc1NC(=O)c1ccc(SC)cc1OC,"inconclusive [inhibitor, single point]",
CC(C)NC(=O)N(C)C[C@H]1Oc2ccc(NC(=O)c3ccncc3)cc2C(=O)N([C@H](C)CO)C[C@@H]1C,,inactive: -2.74%

SMILES,Potency,"activity change, negative = growth inhibition"
Cc1ccc(-n2c(=O)c3c4c(sc3n(Cc3cccc(Cl)c3)c2=O)CCC4)cc1C,,inactive: -17.3%
CCCC(=O)N1CCC1(C)C(=O)Nc1cccc(OC(C)C)c1 (stereo unspecified),"inconclusive [inhibitor, single point]",
CCOc1ccc2nc(SC3CC(=O)N(c4ccc(OC)cc4)C3=O)sc2c1 (stereo unspecified),active: 4.61 µM,
CN(CC(=O)Nc1cccc(F)c1)CC(=O)NC(c1ccccc1)c1ccccc1,"inconclusive [inhibitor, single point]",
CC(C)C(=O)N(Cc1ccccc1)S(=O)(=O)c1ccc2c(c1)oc(=O)n2C,"inconclusive [inhibitor, single point]",
CCc1ccc(NC(=O)C2=CC(c3ccc(OC)cc3)=NS(=O)(=O)N2C)cc1,"inconclusive [inhibitor, single point]",
COC(=O)c1c(OCc2ccccc2)cc(=O)n2c1CCN(Cc1cccc(C)n1)CC2,"inconclusive [inhibitor, partial curve]",
Cc1ccc(S(=O)(=O)Nc2ccc3c(c2)CC(=O)N([C@H](C)CO)C[C@@H](C)[C@H](CN(C)Cc2ccc(-c4ccccc4)cc2)O3)cc1,"inconclusive [inhibitor, single point]",
Cc1ccc(/C=C/C(=O)Nn2cnnc2)cc1,active: 14.6 µM,
CC(C)C[C@H](NC(=O)C1CCN(S(=O)(=O)c2ccccc2)CC1)C(=O)NCc1cccnc1,,inactive: -2%
Cc1cc(C(=O)NC2CCCN(Cc3ccccc3F)C2)n[nH]1 (stereo unspecified),,inactive: 10.7%
FC(F)Oc1ccc(C2N=C(c3ccccc3)NO2)cc1 (stereo unspecified),,inactive: 4.52%
Cc1ccc(Cl)cc1NC(=O)Cn1c(=O)n(CCCS(=O)(=O)C2CCCCC2)c(=O)c2ccccc21,"inconclusive [inhibitor, single point]",
C=C1CCN(C(C)C(=O)O)S(=O)(=O)c2ccccc21 (stereo unspecified),,inactive: 4.14%
Cc1csc2nc(COC(=O)c3ccccc3NC(=O)COc3ccccc3F)cc(=O)n12,"inconclusive [inhibitor, single point]",
Cc1cccc(OCCCCn2c(CO)nc3ccccc32)c1,"inconclusive [inhibitor, single point]",
COc1ccc(-c2noc(CCC(=O)Nc3ccc4c(c3)OCCO4)n2)cc1,active: 14.6 µM,
COC(=O)c1c(NC(=O)CN2CCN(Cc3ccc4c(c3)OCO4)CC2)sc(C)c1C,"inconclusive [inhibitor, single point]",
Cc1ccccc1-c1ccc2ncnc(N3CCN(C)CC3)c2c1,active: 16.4 µM,
Cc1ccc2nc(N3CCN(Cc4ccc(F)cc4)C3=O)c(C)cc2c1,"inconclusive [inhibitor, single point]",
O=C(CCN1C(=O)S/C(=C\c2ccc(F)cc2)C1=O)Nc1ccc(O)cc1C(=O)O,,inactive: -7.42%
CCCc1cc(=O)n2[nH]c(Cc3ccccc3)nc2n1,"inconclusive [inhibitor, single point]",
CCC(C)NC(=O)c1ccc(COc2ccccc2Cl)cc1 (stereo unspecified),"inconclusive [inhibitor, single point]",
CC1CCCC(C)N1CCCNC(=O)c1nn(C)c2c1CSc1ccccc1-2 (stereo unspecified),,inactive: 0.42%

SMILES,Potency,"activity change, negative = growth inhibition"
Cc1ccccc1NC(=O)C1CCCN(C(=O)Nc2ccc(F)cc2)C1 (stereo unspecified),"inconclusive [inhibitor, partial curve]",
C/C(=N/NC(=O)c1cnccn1)c1ccncc1,,inactive: -11.6%
CCOc1ccc(C(=O)CCC(=O)Nc2cccc(S(=O)(=O)N3CCCCC3)c2)cc1,"inconclusive [inhibitor, single point]",
O=C(Nc1cccc(-c2cccc(F)c2)c1)C1CCN(Cc2ccc(CO)o2)CC1,"inconclusive [inhibitor, single point]",
CC1=NN(C(=O)c2ccccc2C)C(O)(c2ccc(Cl)cc2)C1 (stereo unspecified),"inconclusive [inhibitor, single point]",
C[C@H]1CN([C@@H](C)CO)C(=O)CCCn2cc(nn2)CO[C@@H]1CN(C)C(=O)Cc1ccccc1,,inactive: -27%
Cc1cc(C)cc(NC(=O)C2CCN(c3nnc(-n4c(C)ccc4C)s3)CC2)c1,"inconclusive [inhibitor, single point]",
COc1ccc([C@@H]2[C@@H]3C(=O)N(C(C)(C)C)C(=O)[C@@H]3[C@]3(Cc4ccc(Cl)cc4)C(=O)N(c4ccc(Br)cc4)C(=O)N23)cc1,"inconclusive [inhibitor, single point]",
CCOC(=O)c1scc(-c2ccc(C)cc2)c1S(=O)(=O)N1CCN(c2ccccc2)CC1,active: 8.2 µM,
O=C(N/N=C/c1ccncc1)c1cc(Br)ccc1OCc1ccccc1,"inconclusive [inhibitor, single point]",
COc1cccc(/C=C2\Sc3ccc(C(=O)NCC4CCCO4)cc3N(C)C2=O)c1 (stereo unspecified),"inconclusive [inhibitor, single point]",
Cc1ccc(CN2C(=O)CSC2c2ccccc2F)cc1 (stereo unspecified),,inactive: -8.66%
Cc1cccc(C)c1NC(=S)/N=C/N(C)C,"inconclusive [inhibitor, single point]",
COc1ccc(-c2noc(COc3ccc(C)cc3C)n2)cc1OC,"inconclusive [inhibitor, single point]",
COc1ccc(-c2noc(N3CCC(C(=O)Nc4ccc(F)cc4)CC3)n2)cc1,,inactive: -26.2%
CCc1c(C)c(C#N)c2nc3ccccc3n2c1Nc1c(C)n(C)n(-c2ccccc2)c1=O,,inactive: -28.8%
CC(C)(C)[C@H]1C=C(C(=O)N2CCN(Cc3ccc4c(c3)OCO4)CC2)O[C@@H](OCc2ccc(CO)cc2)C1,active: 18.4 µM,
CC(O)CNc1nc(N)[nH]c(=O)c1N=Nc1ccccc1 (stereo unspecified),,inactive: 3.2%
CC1CCCCN1C(=O)c1cc2ccccc2cc1O (stereo unspecified),"inconclusive [inhibitor, single point]",
COc1ccc(CC2(CO)COc3ccccc3C2=O)cc1 (stereo unspecified),active: 16.4 µM,
CCOc1cc(C(=O)Nc2ccc3nc(N4CCN(C)CC4)cc(C)c3c2)cc(OCC)c1OCC,active: 4.61 µM,
CCc1cccc(NC(=O)CN(C)S(=O)(=O)c2ccc3c(c2)n(C)c(=O)c(=O)n3C)c1,,inactive: -23.1%
Oc1ccc(C[C@H]2CN([C@@H](Cc3ccc(O)cc3)CN3CCC[C@@H]3CN3C(=S)NC[C@@H]3Cc3ccccc3)C(=S)N2CC2CCCCCC2)cc1,active: 23.1 µM,
